Data as given in the supplement of paper PMC12217912.
Some of the results follow. The full chains were built here from the parent and the listed change. Values near 0.05 are background.

B1: TEV protease; numbered along this chain (parent)
chain: MGESLFKGPRDYNPISSSICHLTNESDGHTTSLYGIGFGPFIITNKHLFRRNNGTLVVQSLHGVFKVKDTTTLQQHLVDGRDMIIIRMPKDFPPFPQKLKFREPQREERICLVTTNFQTKSMSSMVSDTSCTFPSGDGIFWKHWIQTKDGQCGSPLVSTRDGFIVGIHSASNFTNTNNYFTSVPKNFMELLTNQEAQQWVSGWRLNADSVLWGGHKVFMVKPEEPFQPVKEATQL

Variants of: B1
Assay: raw area under fraction-flipped curve 0-4 h after induction (AUC4h, not background-subtracted), DNA-recorder readout of cleavage of the substrate (dimensionless); higher = more cleavage of the substrate by the protease variant
Conditions: temperature: 34 °C; time window: 0-4 h after rhamnose induction
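Further: Bxb1 expression induced with 0.2% (w/v) L-rhamnose at OD600 near 0.5, cultures sampled hourly, flipped fraction per protease–substrate barcode pair counted by paired-end Illumina sequencing.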

Variant: G28P
- area with substrate ENLYFQA: 0.102
- area with substrate ENLYFQC: 0.0833
- area with substrate ENLYFQF: 0.0561
- area with substrate ENLYFQG: 0.0748
- area with substrate ENLYFQH: 0.0933
- area with substrate ENLYFQI: 0.048
- area with substrate ENLYFQK: 0.0623
- area with substrate ENLYFQL: 0.06
- area with substrate ENLYFQN: 0.0881
- area with substrate ENLYFQP: 0.0709
- area with substrate ENLYFQR: 0.0629
- area with substrate ENLYFQS: 0.0774
- area with substrate ENLYFQT: 0.067
- area with substrate ENLYFQV: 0.0305
- area with substrate ENLYFQW: 0.0663
- area with substrate ENLYFQY: 0.0651

Variant: N24L
- area with substrate ENLYFQA: 0.0726
- area with substrate ENLYFQC: 0.127
- area with substrate ENLYFQD: 0.0675
- area with substrate ENLYFQE: 0.0414
- area with substrate ENLYFQF: 0.0968
- area with substrate ENLYFQG: 0.0756
- area with substrate ENLYFQI: 0.0599
- area with substrate ENLYFQK: 0.0619
- area with substrate ENLYFQL: 0.0535
- area with substrate ENLYFQM: 0.0905
- area with substrate ENLYFQN: 0.0736
- area with substrate ENLYFQR: 0.0433
- area with substrate ENLYFQS: 0.102
- area with substrate ENLYFQT: 0.0675
- area with substrate ENLYFQV: 0.0667
- area with substrate ENLYFQW: 0.0742
- area with substrate ENLYFQY: 0.0834

Variant: A196I
- area with substrate ENLYFQA: 0.109
- area with substrate ENLYFQC: 0.118
- area with substrate ENLYFQF: 0.0697
- area with substrate ENLYFQG: 0.114
- area with substrate ENLYFQH: 0.043
- area with substrate ENLYFQI: 0.0504
- area with substrate ENLYFQK: 0.0583
- area with substrate ENLYFQL: 0.0781
- area with substrate ENLYFQM: 0.0824
- area with substrate ENLYFQN: 0.0759
- area with substrate ENLYFQP: 0.0585
- area with substrate ENLYFQR: 0.0567
- area with substrate ENLYFQS: 0.108
- area with substrate ENLYFQT: 0.0633
- area with substrate ENLYFQV: 0.0627
- area with substrate ENLYFQW: 0.0758
- area with substrate ENLYFQY: 0.069

Variant: A196M
- area with substrate ENLYFQC: 0.114
- area with substrate ENLYFQD: 0.0346
- area with substrate ENLYFQF: 0.0893
- area with substrate ENLYFQG: 0.0987
- area with substrate ENLYFQH: 0.0748
- area with substrate ENLYFQK: 0.0694
- area with substrate ENLYFQL: 0.0651
- area with substrate ENLYFQM: 0.105
- area with substrate ENLYFQN: 0.0689
- area with substrate ENLYFQR: 0.0577
- area with substrate ENLYFQS: 0.115
- area with substrate ENLYFQT: 0.0453
- area with substrate ENLYFQV: 0.0661
- area with substrate ENLYFQW: 0.0653

Variant: M83I
- area with substrate ENLYFQA: 0.0948
- area with substrate ENLYFQC: 0.0986
- area with substrate ENLYFQH: 0.0196
- area with substrate ENLYFQI: 0.0681
- area with substrate ENLYFQL: 0.0571
- area with substrate ENLYFQN: 0.057
- area with substrate ENLYFQP: 0.105
- area with substrate ENLYFQR: 0.0718
- area with substrate ENLYFQS: 0.081
- area with substrate ENLYFQT: 0.0625
- area with substrate ENLYFQW: 0.0746

Variant: I85M
- area with substrate ENLYFQC: 0.122
- area with substrate ENLYFQE: 0.0673
- area with substrate ENLYFQH: 0.0781
- area with substrate ENLYFQI: 0.0609
- area with substrate ENLYFQK: 0.0604
- area with substrate ENLYFQL: 0.0713
- area with substrate ENLYFQN: 0.0976
- area with substrate ENLYFQP: 0.055
- area with substrate ENLYFQQ: 0.0631
- area with substrate ENLYFQR: 0.0645
- area with substrate ENLYFQS: 0.107
- area with substrate ENLYFQT: 0.0688
- area with substrate ENLYFQV: 0.0688
- area with substrate ENLYFQW: 0.0638

Variant: F117K
- area with substrate ENLYFQC: 0.111
- area with substrate ENLYFQI: 0.0766
- area with substrate ENLYFQK: 0.0525
- area with substrate ENLYFQL: 0.0703
- area with substrate ENLYFQM: 0.0699
- area with substrate ENLYFQQ: 0.0323
- area with substrate ENLYFQS: 0.0953
- area with substrate ENLYFQV: 0.0605
- area with substrate ENLYFQW: 0.0613

Variant: S18I
- area with substrate ENLYFQA: 0.103
- area with substrate ENLYFQD: 0.0685
- area with substrate ENLYFQE: 0.0639
- area with substrate ENLYFQF: 0.0799
- area with substrate ENLYFQG: 0.111
- area with substrate ENLYFQI: 0.0558
- area with substrate ENLYFQK: 0.0605
- area with substrate ENLYFQL: 0.0605
- area with substrate ENLYFQM: 0.072
- area with substrate ENLYFQN: 0.0735
- area with substrate ENLYFQR: 0.0655
- area with substrate ENLYFQS: 0.095
- area with substrate ENLYFQT: 0.0619
- area with substrate ENLYFQW: 0.0541

Variant: S26A
- area with substrate ENLYFQA: 0.0917
- area with substrate ENLYFQC: 0.117
- area with substrate ENLYFQD: 0.0675
- area with substrate ENLYFQF: 0.0732
- area with substrate ENLYFQG: 0.0801
- area with substrate ENLYFQH: 0.0651
- area with substrate ENLYFQI: 0.0564
- area with substrate ENLYFQK: 0.0751
- area with substrate ENLYFQL: 0.0657
- area with substrate ENLYFQM: 0.0746
- area with substrate ENLYFQN: 0.0739
- area with substrate ENLYFQP: 0.0391
- area with substrate ENLYFQQ: 0.0638
- area with substrate ENLYFQR: 0.0234
- area with substrate ENLYFQS: 0.0941
- area with substrate ENLYFQT: 0.067
- area with substrate ENLYFQV: 0.0659
- area with substrate ENLYFQW: 0.0685
- area with substrate ENLYFQY: 0.068

Variant: P14S
- area with substrate ENLYFQA: 0.094
- area with substrate ENLYFQC: 0.0987
- area with substrate ENLYFQD: 0.0766
- area with substrate ENLYFQG: 0.0914
- area with substrate ENLYFQH: 0.0791
- area with substrate ENLYFQI: 0.0549
- area with substrate ENLYFQK: 0.0642
- area with substrate ENLYFQL: 0.0803
- area with substrate ENLYFQM: 0.089
- area with substrate ENLYFQN: 0.0784
- area with substrate ENLYFQP: 0.0622
- area with substrate ENLYFQQ: 0.0801
- area with substrate ENLYFQR: 0.0607
- area with substrate ENLYFQS: 0.0981
- area with substrate ENLYFQT: 0.058
- area with substrate ENLYFQV: 0.0455
- area with substrate ENLYFQW: 0.0648
- area with substrate ENLYFQY: 0.0896

Variant: F173I
- area with substrate ENLYFQA: 0.104
- area with substrate ENLYFQC: 0.114
- area with substrate ENLYFQD: 0.074
- area with substrate ENLYFQE: 0.0711
- area with substrate ENLYFQF: 0.0669
- area with substrate ENLYFQH: 0.0819
- area with substrate ENLYFQK: 0.0601
- area with substrate ENLYFQL: 0.0676
- area with substrate ENLYFQN: 0.0737
- area with substrate ENLYFQP: 0.0528
- area with substrate ENLYFQR: 0.0563
- area with substrate ENLYFQS: 0.104
- area with substrate ENLYFQT: 0.0631
- area with substrate ENLYFQV: 0.056
- area with substrate ENLYFQW: 0.0753
